# Laboratory results: US8933233B2, “1,3,4-oxadiazole and 1,3,4-thiadiazole β-lactamase inhibitors” (priority 2012, dated 2015)
# Counter-ions that a name gives are not always drawn. Some of these results come from one statement about several compounds together. At least one compound was matched to its structure with a doubt left.
# Biological target: KPC-2 (Klebsiella pneumoniae, UniProt Q9F663)
# Format: biochemical, K. pneumoniae
# Details: KPC-2, procedure of Example 102, Table IV (kinact/K)
# Chain of KPC-2 (Q9F663 25-293 limits assumed): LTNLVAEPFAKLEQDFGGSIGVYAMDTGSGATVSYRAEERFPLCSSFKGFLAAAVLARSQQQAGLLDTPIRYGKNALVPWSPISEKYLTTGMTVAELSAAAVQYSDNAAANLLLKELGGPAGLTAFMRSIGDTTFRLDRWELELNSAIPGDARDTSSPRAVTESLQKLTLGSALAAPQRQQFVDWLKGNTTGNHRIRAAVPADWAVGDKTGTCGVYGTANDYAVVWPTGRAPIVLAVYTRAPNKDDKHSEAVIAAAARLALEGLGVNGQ
row,Compound,binding affinity [mM⁻¹ s⁻¹]
1,"NCC(O)Cc1nnc([C@@H]2CC[C@@H]3CN2C(=O)N3OS(=O)(=O)O)o1 (stereo partly drawn) [Compound 733, (2S,5R)-2-(5-(3-amino-2-hydroxypropyl)-1,3,4-oxadiazol-2-yl)-7-oxo-1,6-diazabicyclo[3.2.1]octan-6-yl hydrogen sulfate]",1 to 99
2,"CNCCCc1nnc([C@@H]2CC[C@@H]3CN2C(=O)N3OS(=O)(=O)O)o1 [Compound 734, 2S,5R)-2-(5-(3-(methylamino)propyl)-1,3,4-oxadiazol-2-yl)-7-oxo-1,6-diazabicyclo[3.2.1]octan-6-yl hydrogen sulfate]",1 to 99
3,"NCCCCc1nnc([C@@H]2CC[C@@H]3CN2C(=O)N3OS(=O)(=O)O)o1 [Compound 735, (2S,5R)-2-(5-(4-aminobutyl)-1,3,4-oxadiazol-2-yl)-7-oxo-1,6-diazabicyclo[3.2.1]octan-6-yl hydrogen sulfate]",1 to 99
4,"O=C1N2C[C@@H](CC[C@H]2c2nnc(CCNCCO)o2)N1OS(=O)(=O)O [Compound 736, (2S,5R)-2-(5-(2-((2-hydroxyethyl)amino)ethyl)-1,3,4-oxadiazol-2-yl)-7-oxo-1,6-diazabicyclo[3.2.1]octan-6-yl hydrogen sulfate]",1 to 99
5,"CC(C)(N)Cc1nnc([C@@H]2CC[C@@H]3CN2C(=O)N3OS(=O)(=O)O)o1 [Compound 737, (2S,5R)-2-(5-(2-amino-2-methylpropyl)-1,3,4-oxadiazol-2-yl)-7-oxo-1,6-diazabicyclo[3.2.1]octan-6-yl hydrogen sulfate]",1 to 99
6,"N=C(N)Nc1nnc([C@@H]2CC[C@@H]3CN2C(=O)N3OS(=O)(=O)O)o1 [Compound 738, (2S,5R)-2-(5-guanidino-1,3,4-oxadiazol-2-yl)-7-oxo-1,6-diazabicyclo[3.2.1]octan-6-yl hydrogen sulfate]",1 to 99
7,"N=C(N)NC1(Cc2nnc([C@@H]3CC[C@@H]4CN3C(=O)N4OS(=O)(=O)O)o2)CC1 [Compound 739, (2S,5R)-2-(5-((1-guanidinocyclopropyl)methyl)-1,3,4-oxadiazol-2-yl)-7-oxo-1,6-diazabicyclo[3.2.1]octan-6-yl hydrogen sulfate]",1 to 99
8,"O=C1N2C[C@@H](CC[C@H]2c2nnc([C@H]3[C@@H]4CNC[C@@H]43)o2)N1OS(=O)(=O)O [Compound 740, (2S,5R)-2-(5-(3-azabicyclo[3.1.0]hexan-6-yl)-1,3,4-oxadiazol-2-yl)-7-oxo-1,6-diazabicyclo[3.2.1]octan-6-yl hydrogen sulfate]",100 to 999
9,"N=C(N)N1CC(Cc2nnc([C@@H]3CC[C@@H]4CN3C(=O)N4OS(=O)(=O)O)o2)C1 [Compound 741, (2S,5R)-2-(5-((1-carbamimidoylazetidin-3-yl)methyl)-1,3,4-oxadiazol-2-yl)-7-oxo-1,6-diazabicyclo[3.2.1]octan-6-yl hydrogen sulfate]",100 to 999
10,"O=C1N2C[C@@H](CC[C@H]2c2nnc(CCCC3CNC3)o2)N1OS(=O)(=O)O [Compound 743, (2S,5R)-2-(5-(3-(azetidin-3-yl)propyl)-1,3,4-oxadiazol-2-yl)-7-oxo-1,6-diazabicyclo[3.2.1]octan-6-yl hydrogen sulfate]",100 to 999
11,"O=C1N2C[C@@H](CC[C@H]2c2nnc(COC3CNC3)o2)N1OS(=O)(=O)O [Compound 744, (2S,5R)-2-(5-((azetidin-3-yloxy)methyl)-1,3,4-oxadiazol-2-yl)-7-oxo-1,6-diazabicyclo[3.2.1]octan-6-yl hydrogen sulfate]",1 to 99
12,"O=C1N2C[C@@H](CC[C@H]2c2nnc(CCNC3CNC3)o2)N1OS(=O)(=O)O [Compound 745, (2S,5R)-2-(5-(2-(azetidin-3-ylamino)ethyl)-1,3,4-oxadiazol-2-yl)-7-oxo-1,6-diazabicyclo[3.2.1]octan-6-yl hydrogen sulfate]",100 to 999
